# Assay results published in PubChem BioAssay AID504466 (National Center for Advancing Translational Sciences (NCATS), 2011).
# The whole screen tested about 330,000 compounds, of which about 4,200 (1.3%) were called active. The shares of active, inactive and inconclusive entries below differ from those in the screen. Calls follow the shape of the dose curve; as a rule, active = well fitted activation curve with a large enough effect; inconclusive = small, poorly fitted or top-dose-only effect; inactive = no such curve, though single readings can be large or run the other way. A potency beside an inconclusive call is a rough fit, not a confirmed value.
# Assay: qHTS screen for small molecules that induce genotoxicity in human embryonic kidney (HEK293T) cells expressing luciferase-tagged ELG1; also: nearly all actives have a fitted effect of over 60% in size
# Conditions: HEK293T ELG1-luciferase reporter, luminescence, 16 h; series mostly up to 46 µM
# How it was run: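 Genotoxicity was scored as increased ELG1-luciferase reporter signal, measured by ONE-Glo luminescence (30 min, room temperature). Compound or vehicle exposure of the HEK293T reporter cells lasted 16 hr at 37°C.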
# Potency is read from the fitted curve at half-maximal effect; tags tell the direction and shape of the fitted curve.
row,Structure (SMILES),Potency
1,c1csc(-c2nc3nc4ccccc4nc3n2Cc2ccc3c(c2)OCO3)c1,inactive
2,O=C(Nc1ccc(O)c2c(=O)cc(-c3ccccc3Cl)oc12)c1ccccc1Cl,inactive
3,Cn1/c(=N/N=C/c2ccccn2)sc2ccccc21,"inconclusive: 4.11 µM [activator, full curve]"
4,CCCc1ccc(OCc2nc(-c3ccc(NC(=O)c4ccco4)cc3)no2)cc1,active: 16.4 µM
5,COc1cccc(NC(=O)c2cc3ccccc3cc2OC)c1,"inconclusive: 18.3 µM [activator, partial curve]"
6,O=C(NCCNC(=O)c1ccc(Cl)cc1Cl)c1ccccn1,inactive
7,O=C(O)CCn1c(SCc2ccccc2)nc2ccccc21,"inconclusive: 22.4 µM [activator, single point]"
8,O=C(CSCc1ccccc1)N1CCN(c2ccccc2)CC1,"inconclusive: 23.1 µM [activator, partial curve, poor fit]"
9,COc1cc(OC)cc(C(=O)NNC(=O)CCC2CCCC2)c1,inactive
10,COc1ccc(-c2cccc(C(=O)Nc3cccc(C(=O)O)c3)c2)cc1,"inconclusive: 11.6 µM [activator, partial curve, poor fit]"
11,CN(Cc1nc(-c2ccccc2)no1)C1CCOCC1,"inconclusive: 14.6 µM [activator, partial curve]"
12,CCOc1ccc2nc(NS(=O)(=O)c3ccc(NC(C)=O)cc3)sc2c1,"inconclusive: 20.6 µM [activator, single point]"
13,C/C(=N\NC(=O)c1cccs1)c1ccc2c(c1)OCO2,"inconclusive: 18.3 µM [activator, single point]"
14,Cc1occc1C(=O)N/N=C/c1c(O)ccc2ccccc12,"inconclusive: 16.4 µM [activator, partial curve, poor fit]"
15,O=C(COC(=O)c1ccco1)Nc1ccccc1,inactive
16,COc1cnn(-c2ccc(C)cc2)c(=O)c1SCc1ccccc1,"inconclusive: 9.2 µM [activator, partial curve, poor fit]"
17,CC(=O)c1sc(N/N=C/c2cccc([N+](=O)[O-])c2)nc1C,"inconclusive: 10.3 µM [activator, partial curve]"
18,CCCc1ccc(OCc2ccc(C(=O)N3CCSCC3)o2)cc1,active: 10.3 µM
19,O=C(Nc1ccc2ccccc2c1)c1cccc([N+](=O)[O-])c1,"inconclusive: 9.2 µM [activator, partial curve]"
20,Cc1cc(C(=O)COC(=O)C23CC4CC(CC(O)(C4)C2)C3)c(C)n1C,active: 8.2 µM
21,Cc1ccc(OCCCC(=O)NC(C)c2ccccc2)c(C)c1 (stereo unspecified),inactive
